From the antibiotic and cytotoxicity screens of Wong et al. (2023)
Some of the results follow.

Assays:
HSkMC = human skeletal muscle cells; experiment: cytotoxicity call (relative viability < 0.9); conditions: 10 µM
HepG2 = experiment: cytotoxicity call (relative viability < 0.9); conditions: 10 µM
S. aureus RN4220 = experiment: growth inhibition call (relative growth <= 0.2); conditions: 50 µM

SMILES	cytotoxicity call (HSkMC)	cytotoxicity call (HepG2)	growth inhibition call (S. aureus RN4220)
C[C@@H]1CN([C@H](C)CO)C(=O)c2cc(/C=C/c3ccccc3)cnc2O[C@H]1CN(C)C(=O)CN1CCOCC1	inactive	inactive	inactive
C[C@@H]1CN([C@H](C)CO)C(=O)c2cccc(NC(=O)CCCCCC(=O)Nc3ccccc3N)c2O[C@H]1CN(C)C(=O)Nc1ccc(C(F)(F)F)cc1	inactive	inactive	inactive
CCNC(=O)C[C@@H]1CC[C@@H](NC(=O)C2CCOCC2)[C@H](CO)O1	inactive	inactive	inactive
C[C@@H]1CN([C@H](C)CO)S(=O)(=O)c2ccc(C#CC3CCCC3)cc2O[C@H]1CN(C)Cc1cncnc1	inactive	inactive	inactive
CCNC(=O)C[C@@H]1C=C[C@@H](NC(=O)C2CCOCC2)[C@@H](CO)O1	inactive	inactive	inactive
C[C@@H]1CCCCO[C@@H](CN(C)Cc2ccc(C(F)(F)F)cc2)[C@H](C)CN([C@H](C)CO)C(=O)c2cc(NC(=O)Nc3cccc4ccccc34)ccc2O1	inactive	inactive	inactive
Nc1ccc(S(=O)(=O)Nc2ccc(Cl)nn2)cc1	inactive	inactive	inactive
CNC[C@H]1Oc2ccc(NC(=O)Cn3cnnn3)cc2C(=O)N([C@@H](C)CO)C[C@H]1C	inactive	inactive	inactive
O=C(C[C@@H]1C[C@@H]2c3cc(NC(=O)c4ccc5c(c4)OCO5)ccc3O[C@@H]2[C@H](CO)O1)NCCN1CCCCC1	inactive	inactive	inactive
CC(C)NC(=O)N(C)C[C@@H]1OCCCC[C@@H](C)Oc2ccc(NC(=O)Nc3ccc(C(F)(F)F)cc3)cc2C(=O)N([C@@H](C)CO)C[C@H]1C	inactive	inactive	inactive
C[C@@H]1CN([C@H](C)CO)S(=O)(=O)c2ccc(C#Cc3ccc(F)cc3)cc2O[C@@H]1CN(C)C(=O)c1ccccn1	inactive	inactive	inactive
C[C@@H]1CN([C@H](C)CO)C(=O)c2cccc(NC(=O)Nc3ccc(F)cc3)c2O[C@H]1CN(C)Cc1ccc(-c2ccccc2)cc1	inactive	active	inactive
C[C@H](CO)N1C[C@H](C)[C@@H](CN(C)S(=O)(=O)c2cn(C)cn2)OCc2cnnn2CCCC1=O	inactive	inactive	inactive
